Source: PubChem BioAssay AID1346428 (National Center for Advancing Translational Sciences (NCATS), 2018)
Values joined by “and” are separate entries in the source; they are usually repeats but may differ in a detail not shown here. Equal values may be shown once. Among all 48,000 compounds or so, about 1,200 (2.5%) were called active. About 2% were inconclusive and are not listed.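 The calls were made as follows: active = activation of at least 60% and not above a set upper limit (about 1 call in 100 departs from these limits); inconclusive = activation of 40% to 60%, or above that upper limit; inactive = activation under 40%.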 The list shows a part of the results.

Target: Probable G-protein coupled receptor 32 (Homo sapiens) (UniProt O75388)
Chain of UniProt O75388 (O75388 whole entry, looked up): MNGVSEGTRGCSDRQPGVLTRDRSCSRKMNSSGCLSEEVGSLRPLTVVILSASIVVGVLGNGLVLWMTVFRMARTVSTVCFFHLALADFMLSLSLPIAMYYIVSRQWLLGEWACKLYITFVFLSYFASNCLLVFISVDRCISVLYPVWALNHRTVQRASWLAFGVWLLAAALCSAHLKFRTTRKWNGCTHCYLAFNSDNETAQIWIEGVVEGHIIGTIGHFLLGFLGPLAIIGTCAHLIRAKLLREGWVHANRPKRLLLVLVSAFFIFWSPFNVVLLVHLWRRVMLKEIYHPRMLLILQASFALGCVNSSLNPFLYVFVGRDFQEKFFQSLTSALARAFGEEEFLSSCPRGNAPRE
Test: qHTS for Agonists of Human Resolvin D1 Receptor DRV1; also: 0% is about no effect
Details: CHO-K1 GPR32 beta-arrestin PathHunter luminescence, 90 min; at 76.9 µM; hits give high values; zero percent set by DMSO-only wells
Method in brief: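 CHO-K1 cells stably expressing ProLink-tagged GPR32 and Enzyme Activator-tagged beta-arrestin were seeded at 2,500 cells/well overnight, exposed to compounds for 90 min at 37 °C, then read by beta-Gal complementation chemiluminescence after 1 h detection reagent.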

activation, inactive:
CCOc1ccc(CC(=O)NCCS(=O)(=O)N2CCN(c3ccccc3OC)CC2)cc1 17.6%
CCOC(=O)c1noc2ncn(CC(=O)Nc3ccc(OC)c(Cl)c3)c(=O)c12 19.1%
Cc1ccc(Cc2nc3ccccc3nc2SCC(=O)N2CCCCC2)cc1 -16.9%
Cc1nc(C)c(CCNS(=O)(=O)c2ccc(C)c(C)c2)s1 19.4%
CCOc1ccccc1NC(=O)c1c(NCc2ccc(C)o2)sc2c1CCCCC2 -13.7%
O=c1oc2c(F)cc(F)cc2cc1S(=O)(=O)c1ccc(F)cc1 -13.7%
CCOc1ccc(CN2CCN(S(=O)(=O)c3ccc(Cl)cc3)CC2)cc1 -15.2%
CCOc1ccc(N(CC)C(=O)c2cc3c(=O)oc4ccccc4c3s2)cc1 21.3%
Cc1oc(-c2ccccc2F)nc1CN1CCC(C(=O)NCCc2ccc(Cl)cc2)CC1 14.4%
O=C(Cn1cc(S(=O)(=O)c2ccc(F)cc2)c(=O)c2cc3c(cc21)OCO3)Nc1ccccc1 -17.5%
Cc1ccn2c(=O)c(C(=O)Nc3ccc(F)c(C(F)(F)F)c3)cnc2c1 20.4%
CCOc1ccc(-c2nonc2NC(=O)c2oc3ccc(Cl)cc3c2C)cc1 -11.2%
Cc1cccc(NC(=O)C(=O)NCC(c2cccnc2)N2CCc3ccccc32)c1C (centres undefined) -3.32%
CCOC(=O)c1cc(=O)c2c(OCC(COc3cccc4oc(C(=O)OCC)cc(=O)c34)OC(=O)[C@@H](N)CCCCN)cccc2o1 4.16%
COc1ccc(-c2nnn3c2nc(NCc2ccccc2)c2ccccc23)cc1 22.3%
COC(=O)c1ccccc1NC(=O)CCCn1nc(C)c2sc3ccccc3c2c1=O -2.07%
COc1cccc(NC(=O)c2oc3ccccc3c2NC(=O)COc2ccccc2C)c1 0.177%
CC1=C(C(=O)Nc2ccc(C)cc2C)C(CC(C)C)n2nc(SCc3ccccc3C)nc2N1 (centres undefined) 5.91%
COc1ccc(Br)cc1CNC(=O)CCC(=O)N1CCSc2ccccc21 -19.8%
COc1ccccc1CNC(=O)Nc1ccc2c(c1)N(C)C(=O)c1ccccc1S2 -11.9%
O=C(CSc1nc2c([nH]c3ccccc32)c(=O)n1-c1ccc(F)cc1)N1CCCCCC1 -1.67%
COc1cc(NC(=O)CCc2c(C)nc3c(c(C)nn3-c3ccccc3)c2C)cc(OC)c1OC 35.1%
CN1C(=O)C2CCCCN2c2ccc(C(=O)NCc3ccccc3Br)cc21 (centres undefined) -17.8%
COc1cccc2cc(-c3nc(-c4cccs4)no3)c(=O)oc12 -2.83%
O=C(Cn1cc(SCc2cccc(C(F)(F)F)c2)c2ccccc21)N1CCCCCC1 -30.7%
Cc1ccc(NS(=O)(=O)c2c(C(=O)N3CCCCCC3)c(C)n(C)c2C)cc1F -0.0676%
COc1cccc(-c2cc(C(=O)NCCc3ccc(C)cc3)[nH]n2)c1 15.8%
CCOC(=O)c1c(C)c(C(=O)NCCc2ccc(OC)cc2)c(C)n1CC 2.35%
CCOc1ccc(CNC(=O)Cn2nc(C)c3sc4ccccc4c3c2=O)cc1 -12.6%
NCC(O)C1CCCCCCC1 (centres undefined) 9.95%
O=C(Nc1ccc(Br)cc1)c1ccc(Br)c(S(=O)(=O)NCc2ccccc2)c1 1.65%
CCc1nn(CC(=O)Nc2c(C)cc(C)cc2C)c(=O)c2cc3sccc3n12 -9.16%
C=Cc1ccc(Cn2c(=O)n(-c3ccccc3C)c(=O)c3c4c(sc32)CN(C(C)=O)CC4)cc1 -22.4%
Cc1ccc(N(C)S(=O)(=O)c2ccc3[nH]cc(C(=O)O)c(=O)c3c2)cc1C -19.4%
Cc1ccc(C(c2sc3nc(-c4ccco4)nn3c2O)N2CCCCC2)cc1 (centres undefined) 8.91%
CC(=O)c1ccc(NC(=O)CSc2nc(-c3ccccc3F)nc3c2c(=O)n(C)c(=O)n3C)cc1 -3.3%
COc1ccc(C)cc1NC(=O)CN1C(=O)CCc2cc(S(=O)(=O)N3CCOCC3)ccc21 11.2%
Cc1ccc(C(=O)Nc2ccc3c(c2)N(C)C(=O)c2ccccc2S3)cc1F -6.41%
CCN(Cc1ccccc1)C(=O)Nc1ccc2c(c1)N(C)C(=O)c1ccccc1S2 -12.7%
CCOC(=O)c1c(-c2ccc(C)cc2)csc1NC(=O)c1cc(=O)c2cc(C)c(C)cc2o1 -0.321%
CC1Cc2cc(S(=O)(=O)NCc3ccc(F)cc3)ccc2N1C(=O)C1CCC1 (centres undefined) 6.24%
CN1CCC(=C2c3ccccc3C=Cc3ccccc32)CC1 -6.87% and -12.6%
Cc1ccc(NC(=O)C2CCN(c3nc4ccccc4[nH]3)CC2)cc1Cl -22.6%
O=C(NCc1cccs1)c1ccc(CSc2nc3ccncc3n2Cc2cccc(F)c2)cc1 -9.25%
C=CCN1C[C@H](C(=O)N(CCCN(C)C)C(=O)NCC)C[C@@H]2c3cccc4[nH]cc(c34)C[C@H]21 7.5%
CCCC(=O)NCc1nc2cccnc2n1Cc1ccc(F)cc1 -8.52%
Cc1cccc(Cn2nnc3c(=O)[nH]c(C4CCN(C(=O)c5ccccc5F)CC4)nc32)c1 -17.5%
Cc1cccc(NC(=O)CSc2nc(=O)n(CCN3CCOCC3)c3c2CCC3)c1C -16.1%
O=C(Nc1cc(-c2nc3ccccc3o2)ccc1Cl)c1cccc2c(Cl)cccc12 -17.4%
Cc1ccc(NC(=O)Cn2c(=O)n(Cc3ccc4c(c3)OCO4)c(=O)c3ccc(C(=O)NC4CCCCC4)cc32)cc1 22.4%
CCOC(=O)c1ccc(NC(=O)Cc2coc3cc(C)cc(C)c23)cc1 -36.3%
CCN(C(=O)CSc1nnc(C)n2c1cc1occc12)c1ccccc1 -17.2%
CCOc1ccc(NC(=O)c2cc3c(=O)n4cccc(C)c4nc3s2)cc1 -8.51%
COc1ccc(S(=O)(=O)NCc2cccn2Cc2cccc(C)c2)cc1OC 24.5%
CCOC(=O)c1c(-c2ccccc2)oc2ccc(NS(=O)(=O)c3ccccc3)cc12 -6.91%
CCCCc1nn2c(=O)cc(COC(=O)c3ccccc3NC(=O)C3CCCCC3)nc2s1 -14.9%
O=C(CSc1cn(CC(=O)N2CCOCC2)c2ccccc12)Nc1ccccc1C(F)(F)F -17.2%
COc1ccc(CNC(=O)c2cnc(N3CCCC3)nc2C)cc1 -2.34%
Cc1cc([N+](=O)[O-])ccc1NC(=O)CSc1nccn1C -3.18%
CCOC(=O)CSc1nc2c([nH]c3ccccc32)c(=O)n1-c1ccc(OCC)cc1 -6.17%
COc1ccc(-c2c(C)c3ccc(O)c(CN4CCN(C)CC4)c3oc2=O)cc1OC 1.83%
COc1ccc2c(c1)c1c(c(=O)n(-c3cccc(Cl)c3)c(=O)n1C)n2C -0.0872%
Cc1ccccc1C(=O)Nc1nc2c(s1)CC(C(C)(C)C)CC2 (centres undefined) 1.26%
COc1ccc(S(=O)(=O)c2cn(CC(=O)Nc3ccccc3)c3ccc(Cl)cc3c2=O)cc1 32.7%
Cc1cccc2sc(N(Cc3cccnc3)C(=O)C3CCCCC3)nc12 -32.5%
COc1ccc(CSc2nc3ccncc3n2Cc2nc(-c3ccc(OC)c(OC)c3)oc2C)cc1 -15.4%
COc1ccc(C(=O)Nc2onc3c2CCCC3)cc1 13.1%
COCCCn1c(=N)c(C(=O)NC2CCCCC2)cc2c(=O)n3ccccc3nc21 13.2%
COc1ccc(NC(=O)Cn2cnc3c(nc4n3CCCCC4)c2=O)c(OC)c1 -10.7%
COc1ccc(C2=CC(c3ccc(N(C)C)cc3)n3nnnc3N2)cc1 (centres undefined) -19%
Cc1c(CNC2CCCCCC2)c(C(=O)O)c(C)n1Cc1c(F)cccc1Cl -2.86%
CCOC(=O)c1ccccc1NC(=O)Cc1c(C(=O)O)c(C)cn1C 1.37%
CCOC(=O)c1ccc(N2C(=O)c3n[nH]c(C)c3C2c2ccc(O)c(OC)c2)cc1 (centres undefined) 21.2%
COc1ccc(N2CCN(C(=O)Cn3cnc4sc(C)c(S(=O)(=O)N5CCC(C)CC5)c4c3=O)CC2)cc1 -11.7%
Cc1ccc(-n2ncc(C(=O)N3CCN(c4ccccn4)CC3)c2C2CCN(C(=O)OC(C)(C)C)CC2)cc1C -3.62%
Cc1cc(=O)oc2c3c(ccc12)OCN(Cc1ccccc1Cl)C3 -1.22%
Cc1cccc(CS(=O)(=O)CC2Nc3ccc(C(=O)NCc4ccccc4)cc3NC2=O)c1 (centres undefined) -3.5%
O=C(NC1(C(F)(F)F)NC(=O)N(CCc2ccccc2)C1=O)c1ccccc1F (centres undefined) 19.9%
COc1cccc(CSc2nc3cc(OC)c(OC)cc3c3nc(CCn4nc(C)cc4C)nn23)c1 -1.56%
CCOc1ccc2nc(N(Cc3cccnc3)C(=O)c3ccc4c(c3)OCCO4)sc2c1 -6.42%
COC(=O)c1cc2sc(C)cc2n1Cc1ccc(F)cc1Cl -3.55%
COc1ccccc1CNC(=O)Cn1c(=O)ccc2cc(S(=O)(=O)N3CCC(C)CC3)ccc21 -5.4%
COC(=O)c1c(C)oc2c1cc(NS(=O)(=O)c1c(C)cc(C)cc1C)c1ccccc12 -10.9%
O=S(=O)(c1ccc(Cl)cc1)c1nc(-c2ccccc2Br)oc1N1CCOCC1 -12.3%
